This note sets out measurements from paper PMC6323126.

Results are given in words; binding and its absence hold for the method and conditions named. Binding seen in cells or lysates may run through a third protein. Some results given as binding are weak or reduced against the parent protein; the word gives no strength. Tags and fused reporters may be left off the sequences shown.

The target in this assay is T1, Flag-tagged SLMAP (wildtype, in cells) (human) (UniProt Q14BN4).
T1 sequence: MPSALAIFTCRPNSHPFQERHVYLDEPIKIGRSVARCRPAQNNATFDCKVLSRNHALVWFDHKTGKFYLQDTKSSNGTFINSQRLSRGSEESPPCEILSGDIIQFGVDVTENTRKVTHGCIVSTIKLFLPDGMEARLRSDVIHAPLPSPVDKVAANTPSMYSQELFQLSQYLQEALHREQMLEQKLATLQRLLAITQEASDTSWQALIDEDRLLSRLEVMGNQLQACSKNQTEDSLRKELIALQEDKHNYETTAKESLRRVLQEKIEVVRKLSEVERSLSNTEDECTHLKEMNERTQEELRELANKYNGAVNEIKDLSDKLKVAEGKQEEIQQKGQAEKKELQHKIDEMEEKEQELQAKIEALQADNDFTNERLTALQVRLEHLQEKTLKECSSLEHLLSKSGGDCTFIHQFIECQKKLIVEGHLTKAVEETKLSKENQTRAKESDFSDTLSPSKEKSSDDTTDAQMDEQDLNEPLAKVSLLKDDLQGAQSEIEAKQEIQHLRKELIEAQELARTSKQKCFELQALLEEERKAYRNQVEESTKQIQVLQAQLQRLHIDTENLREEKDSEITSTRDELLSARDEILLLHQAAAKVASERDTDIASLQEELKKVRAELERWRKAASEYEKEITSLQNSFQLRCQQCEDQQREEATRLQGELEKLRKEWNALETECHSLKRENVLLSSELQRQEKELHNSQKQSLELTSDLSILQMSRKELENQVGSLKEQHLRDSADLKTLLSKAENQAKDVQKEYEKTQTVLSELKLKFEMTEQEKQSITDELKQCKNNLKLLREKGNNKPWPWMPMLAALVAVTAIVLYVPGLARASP
As to the kind of experiment: co-IP; HEK293FT cells transfected with tagged plasmids, lysed 24 h later in RIPA buffer; immunoprecipitation with indicated antibodies and Protein A/G beads; immunoblot.

B1: HA-tagged SIKE1 (wildtype, in cells) (protein, UniProt Q9BRV8 1-207)
chain: MSCTIEKILTDAKTLLERLREHDAAAESLVDQSAALHRRVAAMREAGTALPDQYQEDASDMKDMSKYKPHILLSQENTQIRDLQQENRELWISLEEHQDALELIMSKYRKQMLQLMVAKKAVDAEPVLKAHQSHSAEIESQIDRICEMGEVMRKAVQVDDDQFCKIQEKLAQLELENKELRELLSISSESLQARKENSMDTASQAIK
B1: the binding result is recorded as “binds”.
